Results as given in the supplement of paper PMC8728848.
The list shows a part of the results.

What was measured:
Experiment in all cases: glycan array binding signal (z-score within array); higher = stronger binding
Conditions in all cases: glycan notation: IUPAC condensed, linker removed
[1] = target: Gal(a1-3)Gal(b1-3)GlcNAc
Outline: (§1)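 The Consortium for Functional Glycomics database supplied 3228 glycan arrays, of which those lacking an available protein sequence were dropped. The binding signal, a within-array Z-score, was averaged across arrays of the same protein sequence and across linkers. Negative scores can be read as non-binding.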

[2] = target: Gal(a1-3)Gal(b1-3)GlcNAc(b1-2)Man
Outline: as §1

[3] = target: Gal(a1-3)Gal(b1-3)GlcNAc(b1-2)Man(a1-3)[Gal(a1-3)Gal(b1-3)GlcNAc(b1-2)Man(a1-6)]Man(b1-4)GlcNAc(b1-4)GlcNAc
Outline: as §1

[4] = target: Gal(a1-3)Gal(b1-3)GlcNAc(b1-3)GalNAc
Outline: as §1

[5] = target: Gal(a1-3)Gal(b1-3)GlcNAc(b1-6)GalNAc
Outline: as §1

[6] = target: Gal(a1-3)Gal(b1-3)[Fuc(a1-4)]GlcNAc(b1-2)Man(a1-3)[Gal(a1-3)Gal(b1-3)[Fuc(a1-4)]GlcNAc(b1-2)Man(a1-6)]Man(b1-4)GlcNAc(b1-4)GlcNAc
Outline: as §1

[7] = target: Gal(a1-3)Gal(b1-4)Glc
Outline: as §1

[8] = target: Gal(a1-3)Gal(b1-4)GlcNAc
Outline: as §1

[9] = target: Gal(a1-3)Gal(b1-4)GlcNAc(b1-2)Man
Outline: as §1

[10] = target: Gal(a1-3)Gal(b1-4)GlcNAc(b1-2)Man(a1-3)[Gal(a1-3)Gal(b1-4)GlcNAc(b1-2)Man(a1-6)]Man(b1-4)GlcNAc(b1-4)GlcNAc
Outline: as §1

[11] = target: Gal(a1-3)Gal(b1-4)GlcNAc(b1-3)GalNAc
Outline: as §1

[12] = target: Gal(a1-3)Gal(b1-4)GlcNAc(b1-6)GalNAc
Outline: as §1

[13] = target: Gal(a1-3)Gal(b1-4)[Fuc(a1-3)]GlcNAc
Outline: as §1

[14] = target: Gal(a1-3)Gal(b1-4)[Fuc(a1-3)]GlcNAc(b1-2)Man(a1-3)[Gal(a1-3)Gal(b1-4)[Fuc(a1-3)]GlcNAc(b1-2)Man(a1-6)]Man(b1-4)GlcNAc(b1-4)GlcNAc
Outline: as §1

[15] = target: Gal(a1-3)GalNAc
Outline: as §1

[16] = target: Gal(a1-3)[Gal(a1-4)]Gal(b1-4)GlcNAc
Outline: as §1

[17] = target: Gal(a1-4)Gal(b1-3)GlcNAc(b1-2)Man(a1-3)[Gal(a1-4)Gal(b1-3)GlcNAc(b1-2)Man(a1-6)]Man(b1-4)GlcNAc(b1-4)GlcNAc
Outline: as §1

[18] = target: Gal(a1-4)Gal(b1-4)Glc
Outline: as §1

[19] = target: Gal(a1-4)Gal(b1-4)GlcNAc
Outline: as §1

[20] = target: Gal(a1-4)Gal(b1-4)GlcNAc(b1-2)Man(a1-3)[Gal(a1-4)Gal(b1-4)GlcNAc(b1-2)Man(a1-6)]Man(b1-4)GlcNAc(b1-4)GlcNAc
Outline: as §1

[21] = target: Gal(a1-4)Gal(b1-4)GlcNAc(b1-3)Gal(b1-4)Glc
Outline: as §1

[22] = target: Gal(a1-4)GlcNAc
Outline: as §1

[23] = target: Gal(a1-6)Glc
Outline: as §1

[24] = target: Gal(b1-2)Gal
Outline: as §1

[25] = target: Gal(b1-3)Gal
Outline: as §1

[26] = target: Gal(b1-3)Gal(b1-4)GlcNAc
Outline: as §1

[27] = target: Gal(b1-3)GalNAc
Outline: as §1

[28] = target: Gal(b1-3)GalNAc(a1-3)[Fuc(a1-2)]Gal(b1-4)Glc
Outline: as §1

[29] = target: Gal(b1-3)GalNAc(a1-3)[Fuc(a1-2)]Gal(b1-4)GlcNAc
Outline: as §1

[30] = target: Gal(b1-3)GalNAc(b1-3)Gal
Outline: as §1

[31] = target: Gal(b1-3)GalNAc(b1-3)Gal(a1-4)Gal(b1-4)Glc
Outline: as §1

[32] = target: Gal(b1-3)GalNAc(b1-4)Gal(b1-4)Glc
Outline: as §1

[33] = target: Gal(b1-3)GalNAc(b1-4)[Neu5Ac(a2-3)]Gal(b1-4)Glc
Outline: as §1

[34] = target: Gal(b1-3)GlcNAc
Outline: as §1

[35] = target: Gal(b1-3)GlcNAc(a1-3)Gal(b1-4)GlcNAc
Outline: as §1

[36] = target: Gal(b1-3)GlcNAc(a1-6)Gal(b1-4)GlcNAc
Outline: as §1

[37] = target: Gal(b1-3)GlcNAc(b1-2)Man
Outline: as §1

[38] = target: Gal(b1-3)GlcNAc(b1-2)Man(a1-3)[Gal(b1-3)GlcNAc(b1-2)Man(a1-6)]Man(b1-4)GlcNAc(b1-4)GlcNAc
Outline: as §1

B1: PX9961V-pdi-562-26-562 (Parabacteroides distasonis) (protein)
chain: EIFSEITTDNYYQNSNNIYAALVNNYAKAFSTGWSDARYFLQEVTADQLMIPTRGKHGYNGGEYVRLHEHKWTVEENFVYNGWAAPFQGIALCNNTLSDFENLDFSTFKLTEETKNEYIAELRALRVWNYMFLIDFFRHVPIVTDIEEVKAQSTPLEVFNFMESELLAILPDLPKNRGVSRFDQAGVASILVRLYLNAEKWIGISKYDECEQMAQAILDGKYGEYSIDPDYRGPFRSGINGYRSKENIMEFAIKKNYFEASWLYNMWMHYQDRYSLDNDWQGWNGGNLAPSRDLYGNLYQDKLGMPFEKFPDGDIRKKAFRVISNDGDYEGFFLMGTQYKFDYEKGYGFTDEVITGTEEYNGKPLVYVDQVGRFSEGETGLAKGSHVIYGEENTGYRLIKFPWLPQSKDLFQMNSIPEIRLAEIYYSLAECKYRSGDKIGAARLLDVVRKRYYKAEDWSKFSYESNISKLTDDEFVDELGREFIGERHRRIDLIRWNRFSEGAWWDKTPDATNQDVFPIPYRALNANPLLKQTTAGF
glycan array binding signal (z-score) [1]: 0.646 | glycan array binding signal (z-score) [2]: -0.526 | glycan array binding signal (z-score) [3]: 2.03 | glycan array binding signal (z-score) [4]: -0.36 | glycan array binding signal (z-score) [5]: 0.883 | glycan array binding signal (z-score) [6]: 3.94 | glycan array binding signal (z-score) [7]: -0.017 | glycan array binding signal (z-score) [8]: 0.068 | glycan array binding signal (z-score) [9]: -0.105 | glycan array binding signal (z-score) [10]: 1.27 | glycan array binding signal (z-score) [11]: -0.109 | glycan array binding signal (z-score) [12]: -0.499 | glycan array binding signal (z-score) [13]: 0.078 | glycan array binding signal (z-score) [14]: -0.237 | glycan array binding signal (z-score) [15]: -0.312 | glycan array binding signal (z-score) [16]: 2.29 | glycan array binding signal (z-score) [17]: 1.06 | glycan array binding signal (z-score) [18]: -0.099 | glycan array binding signal (z-score) [19]: -0.127 | glycan array binding signal (z-score) [20]: 0.615 | glycan array binding signal (z-score) [21]: 0.72 | glycan array binding signal (z-score) [22]: -0.137 | glycan array binding signal (z-score) [23]: -0.25 | glycan array binding signal (z-score) [24]: -0.748 | glycan array binding signal (z-score) [25]: -0.574 | glycan array binding signal (z-score) [26]: 1.5 | glycan array binding signal (z-score) [27]: -0.185 | glycan array binding signal (z-score) [28]: -0.446 | glycan array binding signal (z-score) [29]: -0.036 | glycan array binding signal (z-score) [30]: -0.646 | glycan array binding signal (z-score) [31]: -0.626 | glycan array binding signal (z-score) [32]: -0.58 | glycan array binding signal (z-score) [33]: -0.422 | glycan array binding signal (z-score) [34]: -0.534 | glycan array binding signal (z-score) [35]: -0.263 | glycan array binding signal (z-score) [36]: -0.079 | glycan array binding signal (z-score) [37]: -0.428 | glycan array binding signal (z-score) [38]: 3.41
